Laboratory results reported in PubChem BioAssay AID485294 (National Center for Advancing Translational Sciences (NCATS), 2010).
In all, about 370,000 compounds went through this assay and about 150 (0.041%) were called active. Inconclusive means that the source gave no clear call. Such entries were picked first, then a sample of the others. The call rests on the fitted dose curve; in most records, active means well fitted inhibition curve with a large enough effect; inconclusive means small, poorly fitted or top-dose-only effect; inactive means flat fitted curve, though single readings scatter. Potencies of inconclusive entries are left out as doubtful fits.
Further: nearly all actives have a fitted effect of over 25% in size.
Potency means the concentration at half of the fitted maximal effect; tags describe the fitted curve by direction and shape.

These compounds were tested against Beta-lactamase (Escherichia coli (strain K12)) (UniProt P00811) (assay: qHTS Inhibitors of AmpC Beta-Lactamase (assay with detergent)). Conditions: AmpC hydrolysis of nitrocefin, absorbance 480 nm, 0.01% Triton; series mostly up to 114 µM.
Sequence of UniProt P00811 (P00811 whole entry, looked up): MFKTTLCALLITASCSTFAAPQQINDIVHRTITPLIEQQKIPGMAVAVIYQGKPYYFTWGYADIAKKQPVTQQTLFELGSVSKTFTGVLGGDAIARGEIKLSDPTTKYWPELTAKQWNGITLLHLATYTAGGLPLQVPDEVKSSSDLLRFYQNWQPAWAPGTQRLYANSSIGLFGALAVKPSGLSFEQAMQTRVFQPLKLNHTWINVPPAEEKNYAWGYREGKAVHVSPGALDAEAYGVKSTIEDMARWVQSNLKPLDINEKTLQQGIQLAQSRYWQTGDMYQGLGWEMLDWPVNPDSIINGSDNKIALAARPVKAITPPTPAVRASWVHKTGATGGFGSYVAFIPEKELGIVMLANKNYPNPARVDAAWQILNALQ
In short: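 AmpC (5.3 nM in the dispensed reagent) in 20 mM phosphate pH 7.0 with 0.01% (detergent screen) or 0.0001% Triton X-100 was preincubated with compounds for 15 min at room temperature. Nitrocefin was then added from an 800 uM solution, and hydrolysis was followed at 480 nm.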
With C=CCOc1ccc(/C=N/NC(=O)c2c(C)nc3ccc(Cl)cn23)cc1 the Potency was inconclusive [inhibitor, full curve, poor fit].
With NS(=O)(=O)c1ccc(CCNC(=O)C(=O)Nc2cc3c4c(c2)CC(=O)N4CCC3)cc1 the Potency was inconclusive [inhibitor, single point].
O=C(/C=C/c1ccco1)Nc1cccnc1Cl was tested, and the Potency was “inactive”.
With Nc1nonc1-c1noc(CCCN2C(=O)c3ccccc3C2=O)n1 the Potency was inconclusive [inhibitor, partial curve, poor fit].
CCc1nnc(NS(=O)(=O)c2ccc(NC(=O)OC)cc2)s1 was tested, and the Potency was inconclusive [inhibitor, full curve, poor fit].
With COc1ccccc1NS(=O)(=O)CC12CCC(CC1=O)C2(C)C (stereo not given) the Potency was inconclusive [inhibitor, full curve, poor fit].
For Cc1cc(C)cc(-c2nnc(SCC(=O)c3ccc4c(c3)OCCO4)o2)c1, the Potency was inconclusive [inhibitor, single point].
With O=C(N1CCCCC1)N1CCN(S(=O)(=O)c2ccccc2)CC1 the Potency was inconclusive [inhibitor, full curve, poor fit].
For CCCC(=O)c1ccc(N2CCCCCC2)c(F)c1, the Potency was “inactive”.
In the case of Cc1ccccc1-c1nnc(NC(=O)c2ccc(N3C(=O)CCC3=O)cc2)s1, the Potency is reported as inconclusive [inhibitor, full curve].
In the case of O=C(NC1CC1)c1ccc(CS(=O)c2ccccc2)o1 (stereo not given), the Potency is reported as inconclusive [inhibitor, partial curve, poor fit].
CCc1nnc(NC(=O)CC(CN(C)S(=O)(=O)c2ccccc2)c2ccccc2)s1 (stereo not given) was tested, and the Potency was inconclusive [inhibitor, full curve].
For Cc1ccc(C)c(OCCN2C(=O)NC3(CCc4ccccc4C3)C2=O)c1 (stereo not given), the Potency was inconclusive [inhibitor, full curve, poor fit].
Cc1cnc(NC(=O)COc2cccc3c2OC(C)(C)C3)s1 was tested, and the Potency was inconclusive [inhibitor, single point].
With CC1(C)C(=O)C2(CCCCC2)C(=O)OC1c1cccn1-c1ccc([N+](=O)[O-])cc1 (stereo not given) the Potency was inconclusive [inhibitor, partial curve, poor fit].
For COc1ccccc1C(=O)NNC(=O)C1CC=CCC1 (stereo not given), the Potency was “inactive”.
With CCCCP(=O)(O)CCC(=O)O the Potency was inconclusive [inhibitor, full curve, poor fit].
O=C(c1ccccc1)N1CCN(C2CC3CCC2C3)CC1 (stereo not given) was tested, and the Potency was inconclusive [inhibitor, single point].
For CCOC(=O)N1CCC(NC(=O)c2cc(C(=O)NCc3cccc(Cl)c3)ccc2CO)CC1, the Potency was inconclusive [inhibitor, full curve].
In the case of CCCOn1c(-n2nc(C)cc2C)nc2ccccc2c1=O, the Potency is reported as inconclusive [inhibitor, single point].
For CCN1C(=NCCOC)N[C@@H](c2cccc(C(F)(F)F)c2)C(C(=O)OC)=C1C, the Potency was inconclusive [inhibitor, full curve].
In the case of C/C(=N/NC(=O)c1ccc(Br)o1)c1cccc(NC(=O)c2ccc(F)cc2)c1, the Potency is reported as “inactive”.
In the case of Cc1ccc(C(C[N+](=O)[O-])Sc2ccc(N)cc2)cc1 (stereo not given), the Potency is reported as inconclusive [inhibitor, single point].
CCc1c(C)nc2c(C#N)c(C)[nH]n2c1=O was tested, and the Potency was inconclusive [inhibitor, partial curve, poor fit].
In the case of COC(=O)CCN(C(=O)C1CCN(S(=O)(=O)c2c(C)noc2/C=C/c2ccccc2F)CC1)c1ccccc1, the Potency is reported as “inactive”.
O=C(Cc1ccccc1)Nc1cc([N+](=O)[O-])ccc1N1CCOCC1 was tested, and the Potency was inconclusive [inhibitor, full curve, poor fit].
With COc1ccc(NC(=S)NCc2ccccn2)cc1OC the Potency was inconclusive [inhibitor, partial curve].
In the case of Cc1ccc(N2C(S)=C(C#N)C(=O)NC23CCCCC3)cc1, the Potency is reported as inconclusive [inhibitor, full curve, poor fit].
CCOC(=O)[C@@H]1[C@H]2COc3ccc(Br)cc3[C@@H]2N2C(=O)N(c3ccc(OC)cc3)C(=O)[C@]12C was tested, and the Potency was inconclusive [inhibitor, partial curve].
In the case of Cc1ccc(C)c(CN2C(=O)c3ccccc3S(=O)c3ccc(C(=O)NCCC4=CCCCC4)cc32)c1 (stereo not given), the Potency is reported as “inactive”.
In the case of Cc1ccc(S(=O)(=O)N2CCCC(C(=O)NCc3cccnc3)C2)cc1Cl (stereo not given), the Potency is reported as inconclusive [inhibitor, partial curve].
In the case of CN(C)C(CNC(=S)Nc1ccc(F)cc1)c1cccnc1 (stereo not given), the Potency is reported as inconclusive [inhibitor, full curve, poor fit].
In the case of N#C/C(=C\c1ccc(C(=O)O)cc1)c1nc2sc3c(c2c(=O)[nH]1)CCCC3, the Potency is reported as “inactive”.
In the case of O=C(CSc1nnc(-c2ccccc2)o1)N1CCc2ccccc2C1, the Potency is reported as inconclusive [inhibitor, partial curve].
CC(=O)N1CCN(c2ccc(S(=O)(=O)N3CCCCC3)cn2)CC1 was tested, and the Potency was inconclusive [inhibitor, partial curve].
For NS(=O)(=O)c1ccc(CCNC(=O)CCCn2c(=O)[nH]c3ccc(Br)cc3c2=O)cc1, the Potency was inconclusive [inhibitor, single point].
For CC(C)(C)N(NC(=O)Nc1ccccc1)C(=O)c1ccccc1, the Potency was inconclusive [inhibitor, full curve, poor fit].
In the case of CC(=O)NC(Cc1ccccc1)C(=O)NC1CCN(C(=O)NC2CCCCC2)CC1 (stereo not given), the Potency is reported as inconclusive [inhibitor, full curve, poor fit].
With Cc1cc(S(=O)(=O)NCc2ccccc2)ccc1OCC(=O)NCC1CCCO1 (stereo not given) the Potency was “inactive”.
In the case of COc1ccc(CCNc2oc(COc3ccccc3F)nc2C#N)cc1OC, the Potency is reported as “inactive”.
With N#Cc1nc(COc2cccc(Cl)c2)oc1NCc1ccncc1 the Potency was “inactive”.
With Clc1ccc(-c2csc(N3CCC(c4ccccc4)C3)n2)cc1 (stereo not given) the Potency was “inactive”.
In the case of CCOc1ccc2c(c1)c(=O)c(S(=O)(=O)c1ccc(Cl)cc1)cn2Cc1ccccc1C, the Potency is reported as “inactive”.
COc1ccc(/C=C/C(=O)c2ccc(Cl)s2)cc1O was tested, and the Potency was inconclusive [inhibitor, partial curve, poor fit].
In the case of Cc1nnc(NC(=O)CCCOc2ccccc2)s1, the Potency is reported as inconclusive [inhibitor, full curve, poor fit].
Cc1ccc(C)c(S(=O)(=O)N2CCCCC2CCNC(=O)C(=O)NC2CCCC2)c1 (stereo not given) was tested, and the Potency was inconclusive [inhibitor, full curve, poor fit].
In the case of O=C(CSc1nc2ccccc2c(=O)n1-c1ccccc1)NC(=O)CN1CCCC1=O, the Potency is reported as inconclusive [inhibitor, full curve, poor fit].
For Cc1nn(-c2ccc(C(=O)O)cc2)c(C)c1Oc1ccccc1O, the Potency was inconclusive [inhibitor, partial curve, poor fit].
Cc1cc(S(=O)(=O)N2CCCC2)ccc1OCC(=O)NCc1ccccn1 was tested, and the Potency was inconclusive [inhibitor, partial curve, poor fit].
In the case of Cc1cccc(C(=O)NNC(=S)NC(=O)c2cccs2)c1, the Potency is reported as “inactive”.
For CNC(=O)NC(=O)COC(=O)c1ccccc1OCc1ccccc1, the Potency was inconclusive [inhibitor, full curve, poor fit].
CC(NCc1ccccc1)c1ccccc1O (stereo not given) was tested, and the Potency was “inactive”.
CCOC(=O)COc1nc(C)c(Br)c(OC)n1 was tested, and the Potency was inconclusive [inhibitor, partial curve, poor fit].
Cc1ccc(NC(=O)CCNS(=O)(=O)c2ccccc2F)cc1S(=O)(=O)N1CCOCC1 was tested, and the Potency was inconclusive [inhibitor, partial curve, poor fit].
Cc1ccc(NC(=O)c2sc3ncnc(N(C)C4CCCCC4)c3c2C)cc1 was tested, and the Potency was “inactive”.
For CC(C)C[C@H](NC(=O)[C@@H]1Cc2c([nH]c3ccccc23)C2c3ccccc3C(=O)N21)C(=O)N1CCC[C@@H]1C(=O)O (stereo not given in full), the Potency was inconclusive [inhibitor, full curve, poor fit].
With CCOC(=O)c1sc(NC(=O)CCN2CCC(C)CC2)c(C(=O)OCC)c1C the Potency was inconclusive [inhibitor, full curve, poor fit].
With COc1ccc(N2C(=O)C3CCCN3C2c2cccc(F)c2)cc1Cl (stereo not given) the Potency was “inactive”.
COc1ccc(N2CCN(C(=O)CCc3nnc4ccc(N5CCCC5)nn34)CC2)cc1 was tested, and the Potency was “inactive”.
With Cc1nc2ccccn2c1C(=O)N/N=C/c1ccc(CNC(=O)C(=O)Nc2ccccc2)o1 the Potency was inconclusive [inhibitor, single point].
O=C(CN1CCN(C(c2ccccc2)c2ccccc2)CC1)N1N=CCC1c1ccccc1 (stereo not given) was tested, and the Potency was “inactive”.
For Cc1ccc(CONC(=O)c2ccccc2)cc1, the Potency was inconclusive [inhibitor, full curve, poor fit].
Cc1c(/C=N/NC(=O)c2cc(C(C)(C)C)[nH]n2)c2ccccc2n1C was tested, and the Potency was inconclusive [inhibitor, partial curve].
In the case of CCOC(=O)N1CCN(C(=O)c2ccccc2SCC(=O)NCC2CCCCC2)CC1, the Potency is reported as inconclusive [inhibitor, partial curve, poor fit].
For CCN1CCN(CC(=O)Nc2ccc(Cl)c(Cl)c2)C(=O)C1=O, the Potency was inconclusive [inhibitor, partial curve, poor fit].
